# Experimental data as given in the supplement of paper PMC11417369.
# The other results are listed elsewhere or left out.
# System: PfSIP2 AP2 domain 1 (GST-tagged)
# Assay: gcPBM binding intensity (ln(normalized median fluorescence intensity)); higher = stronger DNA binding
# Procedure, shortened: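 Alexa488 anti-GST antibody, scanned at 488 nm, detected GST-tagged P. falciparum DNA-binding domains that had been expressed in E. coli and incubated for 1 h on an Agilent 4 × 180k array. The array carried primer-extended double-stranded 36-bp intergenic genomic probes and negative controls. Binding intensity is the highest Masliner-normalised natural-log median intensity across replicate spots of either orientation of each probe.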
row,Sequence,gcPBM binding intensity (ln)
1,ATATGAACATTAAAAAAGTAAGGTATTCTCCCCTCT [CACACA_negctrl_site1299],6.83
2,CATATCAAAAAAAAATGTACACGTATATACAATACA [XGTACX_site2660],6.95
3,TTTTAAAATAAAAAAATAAAAAAAGGGGAAAAAAAA [CACACA_negctrl_site847],6.67
4,ATATACTTATATATTGCACACATCTAATATTTTGAA [CACACA_site3165],7.15
5,TATAATATGTTTGATGGTACACGTAAACACCTTGCA [XGTACX_site1643],7.01
6,ATAACTAAATTATATTGTACAAAATAATTATATATT [XGTACX_site1188],6.91
7,TTTAATCAACAAAATCTACACACTAATATGAAATAT [CACACA_site9250],6.87
8,ATACACGTTTTACAATGTACAGAAAGTATACATAAT [XGTACX_site4585],7.35
9,GTATTTTTTTTCTTTTGTACATATATATAAAGAATA [XGTACX_site4569],7.62
10,TATTATATATATAAATGTACATATTATTTTTCTTTT [XGTACX_site8670],6.92
11,AAGAATTTTCGATTTGCACACATTTGTAAAATAAAA [CACACA_site2354],7.32
12,CAACAAAAGAAACACACACACACAAACACAAAAAAA [CACACA_site3389],7.15
13,TGTATACCTTAATATACACACATACATATATATATA [CACACA_site8370],9.13
14,GGATATATTATATGTACACACATATATAACGGATAT [CACACA_site1309],7.15
15,ATGTAATAAATACTACGTACATATATATGTGTTAAT [XGTACX_site3265],7.01
16,ATATACATATTTTTGACACACATTAGGAAAATATAT [CACACA_site4123],7.11
17,ATATATAAATATAGCATACACACAAAAAAATAAAAT [CACACA_site2332],7.11
18,TATTATTTATATGATACACACGTACATATACACATA [CACACA_site9275],7.02
19,TTCATTAAAACGAATACACACATAAATATATAAAAG [CACACA_site4824],7.06

row,Sequence,gcPBM binding intensity (ln)
1,AAATATATATATATTACACACTATATATTTATTTAT [CACACA_site681],7.1
2,AAAAATAAAATAAAATAAAATAAAAATAAAGAAAAA [CACACA_negctrl_site808],6.63
3,AGTAGTCTGGAGAAAAGTACACAGTATCTGGTAACA [XGTACX_site2034],6.79
4,ACAAATAAAAAAATTACACACATATATAATATATAT [CACACA_site1361],7.13
5,ATTTGACACGTATATGCACACACCCGTAAGTGTCCA [CACACA_site8891],8.08
6,TATTAACTCAATAGCGCACACTTTTAATATTTTATA [CACACA_site4973],7.33
7,TTATAAATTTTTAATAGTACATAAAATTAAAGGTAA [XGTACX_site760],7.21
8,ATGTGATAATTTAGGAGTACTGTCATAAGCATTTCT [XGTACX_site3091],7.05
9,TCATAAAAAGGAATCTTTAAGATATTTTATAAGCTC [XGTACX_negctrl_site18],6.63
10,TTTCTTTATTTATAATAATTTTTTATTAAAAATAGA [CACACA_negctrl_site1610],6.78
11,AGTGCATAATATTTATGTACGTATCACATATATTTT [XGTACX_site5166],9.05
12,AATAAATGTCTGTTAATGCACACGATATGTCTATAT [CACACA_site2351],7.38
13,ATGTATCGTAACAAATGTACAAGAGGATGTTTAGAC [XGTACX_site3355],7.66
14,GATATATTTTGTTATGTAGATGTTGGTAGGAATTTT [GTGCAC_negctrl_site485],7.05
15,GTATTTATATGATTAACACACATATGTGGATTAATA [CACACA_site1315],7.01
16,TATATAACTACAAGAACACACATATAAATATAAATA [CACACA_site7210],6.96
17,GTAATTAAGATATATACACACAAAGGCTATTAAATA [CACACA_site6604],6.97
18,ATATATATATATATATGTACGTAAACAAAAATTTAT [XGTACX_site6780],9.31
19,TATTGATAAAAAATATGTACATATATACATATATAT [XGTACX_site3821],7.37

row,Sequence,gcPBM binding intensity (ln)
1,TAATTACCATATGGTACACACATATATATCTGTATA [CACACA_site5849],6.98
2,AATAATATCTGAAAATGTACATTTTATTATAAACAT [XGTACX_site8441],7.02
3,AAGAAGAGTTATTGTAGTACATTTTTAAATGTAATA [XGTACX_site7664],6.9
4,AAGAATTATAGAAACACACATACATACAGACATACA [CACACA_site1943],6.99
5,TATTTGGGTATTTTTACACACATTAATATATATATA [CACACA_site9114],8.76
6,AAAGATAATAATATGCGTACATAAAAATATATGATA [XGTACX_site6884],7.13
7,ATAATGGAAAAAAAATATAATAATACGAAATAGGAA [TGCATGCA_negctrl_site64],7.28
8,AGTTAAATGAATCAATACATAAATATGTATATATAT [TGCATGCA_negctrl_site539],7.44
9,TTTTTTTAATAAATTTATAACAATATGATAGGTGAC [CACACA_negctrl_site1783],7.83
10,TGAATCAATTGTTGCTGTACATAAGGTATACAATAA [XGTACX_site5127],6.99
11,TAAATAAATACATACACACACATACCTATATTTATA [CACACA_site7466],7
12,AATATAAATATAAATATAAATATATATATATATATA [TGCATGCA_negctrl_site603],9.38
13,TTTTATAAAAACAAAAACAAAGGCACTTTCTAAAGA [XGTACX_negctrl_site130],7.12
14,ATAATGTATATTATTGCACACATATATAAAATTATG [CACACA_site8280],7.29
15,TGTATACACATATGTACACACATATAGATGTATATG [CACACA_site7447],7.02
16,AAAGACAAAAGGAATTGTACATAATATATAAAATAT [XGTACX_site2923],6.99
17,AATTTTATTTAAAGTGCATGTAAAATTAAAACTTTT [TGCATGCA_site989],9.41
18,ATATAAAATATGAGTAGTACATATTTTCTCATCTTA [XGTACX_site8595],6.84
